Data as given in PubChem BioAssay AID360 (National Center for Advancing Translational Sciences (NCATS), 2006).
In all, about 48,000 compounds went through this assay and about 550 (1.1%) were called active. Not shown: some 4% with an inconclusive outcome. Rule as the data show it: active = potency below about 15 µM; inconclusive = mostly about 16 µM to 33 µM; inactive = weaker than that. This is one part of the list.

The molecules below were run against Lysosomal acid glucosylceramidase (Homo sapiens) (UniProt P04062) (assay: Glucocerebrosidase). Settings: purified enzyme, resorufin glucoside fluorescence (screen aimed at inhibitors), 20 min.
Sequence of UniProt P04062 (P04062 whole entry, looked up): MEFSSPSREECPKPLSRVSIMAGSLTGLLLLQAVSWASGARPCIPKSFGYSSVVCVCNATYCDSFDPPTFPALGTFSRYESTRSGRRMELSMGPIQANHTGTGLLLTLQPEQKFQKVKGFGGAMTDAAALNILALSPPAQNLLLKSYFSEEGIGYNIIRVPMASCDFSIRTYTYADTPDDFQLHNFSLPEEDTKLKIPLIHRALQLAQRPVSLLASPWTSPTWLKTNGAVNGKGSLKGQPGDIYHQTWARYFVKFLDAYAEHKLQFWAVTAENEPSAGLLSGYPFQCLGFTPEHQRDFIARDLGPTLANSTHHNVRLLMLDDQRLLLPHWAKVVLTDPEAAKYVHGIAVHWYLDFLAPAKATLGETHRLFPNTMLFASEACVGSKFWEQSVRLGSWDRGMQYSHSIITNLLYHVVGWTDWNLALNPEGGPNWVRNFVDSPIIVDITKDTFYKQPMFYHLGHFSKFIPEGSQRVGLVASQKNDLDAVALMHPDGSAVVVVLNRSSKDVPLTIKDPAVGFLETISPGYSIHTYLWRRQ
Outline: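 Normal human glucocerebrosidase (0.2 nM final) was assayed with resorufin β-D-glucopyranoside (30 uM final) in 50mM citric acid/KH2PO4, 10mM sodium taurocholate, 0.01% tween-20, pH 5.9. Compounds were titrated; fluorescence (Ex 548, Em 600) read after 20 min at RT.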
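Also: the screen sought inhibitors.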
Potency is read from the fitted curve at half-maximal effect.

| SMILES | Potency |
| --- | --- |
| Nc1ccccc1N=Cc1c(O)n(CCC2=CCCCC2)c(=O)[nH]c1=O | inactive: > 76.9 µM |
| O=C(CN1CCCC1=O)N1CCOCC1 | inactive: > 76.9 µM |
| CCOC(=O)N1CCC(NC(=O)CCc2nc(C3=CCN(C)CC3)no2)CC1 | inactive: > 76.9 µM |
| CNP1(NC)=NC(C(F)(F)F)=NC(C(F)(F)F)=N1 | inactive: > 76.9 µM |
| Cc1ccc(S(=O)(=O)N2CCC(C(=O)N3CCC4(CC3)OCCO4)CC2)cc1 | inactive: > 76.9 µM |
| OC1(c2ccc(F)cc2)CC2CCC(C1)N2Cc1nnnn1C1CCCC1 (stereo not given) | inactive: > 76.9 µM |
| CCCN1C2CCCC1CC(NC(C)=O)C2 (stereo not given) | inactive: > 76.9 µM |
| CCS(=O)(=O)N1CCC(C(=O)N2CCC3(CC2)OCCO3)CC1 | inactive: > 76.9 µM |
| CCC(=NCC1CCCO1)c1c(O)n(-c2ccccc2)c(=O)[nH]c1=O (stereo not given) | inactive: > 76.9 µM |
| CC1CCC(C(=O)NC(C(=O)N2CCC3(CC2)OCCO3)C(C)C)CC1 (stereo not given) | inactive: > 76.9 µM |
| COc1cc2[nH]c(=O)n(-c3ccccc3)c(=O)c2cc1OC | inactive: > 76.9 µM |
| CC(=O)OC1(c2ccccc2)CCN(C)C2CCCCC21 (stereo not given) | inactive: > 76.9 µM |
| COC(=O)C1C2c3ccccc3OC1(C)N=c1s/c(=C/c3cnn(C)c3C)c(=O)n12 (stereo not given) | inactive: > 76.9 µM |
| COc1ccc2c(c1)CC1(CN2C)C(=O)NC(=O)N(c2ccc(C)cc2)C1=O (stereo not given) | inactive: > 76.9 µM |
| COc1ccc(OC)c(CN2CCN(C(=O)COc3cccc(C)c3)CC2)c1 | inactive: > 76.9 µM |
| COc1ccc(C2C(C(=O)N3CCC4(CC3)OCCO4)CC(=O)N2c2ccc(OC)cc2)cc1 (stereo not given) | inactive: > 76.9 µM |
| CC(C)OC(=O)c1c(N)n(CC2CCCO2)c2nc3ccccc3nc12 (stereo not given) | inactive: > 76.9 µM |
| CC1CCCC(C2(O)C(=O)Nc3ccccc32)C1=O (stereo not given) | inactive: > 76.9 µM |
| O=C(NCC(c1cccnc1)N1CCN(c2ccccc2)CC1)Oc1ccccc1 (stereo not given) | inactive: > 76.9 µM |
| CC1(C)CC2(CCO1)NCCN1C(=O)CSC12 (stereo not given) | inactive: > 76.9 µM |
| CN=C(SCc1cc2c(cc1Cl)OCO2)c1c(O)n(C)c(=O)n(C)c1=O | inactive: > 76.9 µM |
| Cc1ccc(OCC(=O)N2CCN(C)CC2)c(Br)c1 | inactive: > 76.9 µM |
| CN(C)c1ccc(NC(=O)CN2C(=O)CN=C(c3ccccc3)c3ccccc32)cc1 | inactive: > 76.9 µM |

| SMILES | Potency |
| --- | --- |
| CCCSc1nc(O)c(CC)c(=O)n1C(C)CC (stereo not given) | inactive: > 76.9 µM |
| COc1ccc(C2=NCC(=O)N(CC(=O)NCc3ccco3)c3sc4c(c32)CCCC4)cc1OC | inactive: > 76.9 µM |
| COCCCn1c(N)c(C(=O)NCCC(C)C)c2nc3ccccc3nc21 | inactive: > 76.9 µM |
| CCC(=NCc1cccnc1)c1c(O)n(Cc2ccccc2)c(=O)[nH]c1=O | inactive: > 76.9 µM |
| CCN(CC)C(=O)c1ccc(NC(=O)Cn2nc(C)c3ccccc3c2=O)cc1 | inactive: > 76.9 µM |
| CC1(C)CN=C(Nc2ccccc2C(F)(F)F)S1 | inactive: > 76.9 µM |
| Cc1sc2ncn(CC(=O)N3CCC4(CC3)OCCO4)c(=O)c2c1C | inactive: > 76.9 µM |
| O=C(NC(Cc1ccccc1)C(=O)N1CCC2(CC1)OCCO2)C1CCCCC1 (stereo not given) | inactive: > 76.9 µM |
| CN1C(=O)C(Cc2ccsc2)C(=O)N(C)C1=O | inactive: > 76.9 µM |
| O=c1[nH]c(=O)n(CCc2ccc(F)cc2)c(O)c1C=NCCCn1ccnc1 | inactive: > 76.9 µM |
| CCOc1cc(C2NCc3ccccc3-n3cccc32)ccc1O (stereo not given) | inactive: > 76.9 µM |
| O=C(C1CCCO1)N1CCC2(CC1)OCCO2 (stereo not given) | inactive: > 76.9 µM |
| Cc1nc2cc(F)ccc2n1C1CCN(Cc2nnnn2CCc2ccccc2)CC1 | inactive: > 76.9 µM |
| CC(=O)N(C1=NCCCS1)c1ccc(F)cc1 | inactive: > 76.9 µM |
| Cc1nn(Cc2ccccc2)c(C)c1C(=O)OCC(=O)Nc1ccccc1SCC#N | inactive: > 76.9 µM |
| CCOC(=O)C1CCCCC12C(C#N)=C(N)Oc1n[nH]c(C)c12 (stereo not given) | inactive: > 76.9 µM |
| CCC(C)NC(=O)c1c(N)n(CCCOC)c2nc3ccccc3nc12 (stereo not given) | inactive: > 76.9 µM |
| CCOC(=O)C1C(=O)NC2(C)CC1c1cc(OC)ccc1O2 (stereo not given) | inactive: > 76.9 µM |
| CCOC(=O)C1CCN(C(C)C(=O)c2c(C)[nH]c3cc(C)ccc23)CC1 (stereo not given) | inactive: > 76.9 µM |
| O=C1C2CCCN2C(c2cccc(Cl)c2)N1c1ccccn1 (stereo not given) | inactive: > 76.9 µM |
| FC(F)(F)c1ccc2c(c1)NP(=S)(N1CCOCC1)c1nccn1-2 (stereo not given) | inactive: > 76.9 µM |
| CC(=NCc1ccc(F)cc1)c1c(O)n(C)c(=O)n(C)c1=O | inactive: > 76.9 µM |
| c1ccc2[nH]c(CCNC3CCCCC3)nc2c1 | inactive: > 76.9 µM |

| SMILES | Potency |
| --- | --- |
| COc1ccc(Cl)cc1NC1=NCC(C)S1 (stereo not given) | inactive: > 76.9 µM |
| CC(=O)N1CCC2(CC1)CC(=O)c1cc(OCC(=O)N3CCN(C)CC3)ccc1O2 | inactive: > 76.9 µM |
| CCCCOC(=O)C1=C(N)OC2=C(C(=O)CCC2)[C@]12C(=O)Nc1ccccc12 | inactive: > 76.9 µM |
| C[C@H]1CCCC(=O)CCCCCc2cc(O)cc(O)c2C(=O)O1 | inactive: > 76.9 µM |
| COc1ccc(-n2c(O)c(C(C)=NC3CC3)c(=O)[nH]c2=O)cc1 | inactive: > 76.9 µM |
| Cc1ccc2c(c1)C1CN(C)CCC1N2C(=O)Cn1cnc2c1c(=O)n(C)c(=O)n2C (stereo not given) | inactive: > 76.9 µM |
| c1ccc(CCn2nnnc2CN2CCC(n3nnc4ccccc43)CC2)cc1 | inactive: > 76.9 µM |
| FC(F)(F)c1ccc2c(c1)nnn2C1CCN(Cc2nnnn2Cc2ccccc2)CC1 | inactive: > 76.9 µM |
| CN(C)c1ccc(N=Cc2c(O)n(CCC3=CCCCC3)c(=O)[nH]c2=O)cc1 | inactive: > 76.9 µM |
| CC(Cc1ccccc1)[n+]1cc(/N=C(\N)[O-])on1 (stereo not given) | inactive: > 76.9 µM |
| CN1CCC2(CC1)NC(=O)C1=C(CN(C)CC1)N2 | inactive: > 76.9 µM |
| CCCCN1CCC(C#N)(Nc2ccccc2)CC1 | inactive: > 76.9 µM |
| Cc1ccc(C2C(S(C)(=O)=O)=C(O)C(=O)N2c2ccccc2)cc1 (stereo not given) (tested in a mixture with another compound) | inactive: > 76.9 µM |
| Cn1c(O)c(C=NCCCN2CCCC2=O)c(=O)n(C)c1=O | inactive: > 76.9 µM |
| Cc1ccc(P(=S)(c2ccc(C)o2)N2CCOCC2)o1 | inactive: > 76.9 µM |
| Cc1ccc2c(c1)CNc1ccccc1O2 | inactive: > 76.9 µM |
| O=C(CN1CCN(Cc2cccc(Cl)c2)C1=O)N1CCC2(CC1)OCCO2 | inactive: > 76.9 µM |
| CN(C)c1ccc2c(c1)N=C(c1ccco1)OP2(=S)N1CCOCC1 (stereo not given) | inactive: > 76.9 µM |
| Cc1cc(OCC(=O)O)c2c3c(c(=O)oc2c1)CCCC3 | inactive: > 76.9 µM |
| OC1(c2ccc(F)cc2)CC2CCC(C1)N2Cc1nnnn1C1CCCCC1 (stereo not given) | inactive: > 76.9 µM |
| C=COCCn1c(C)c(C(=O)OCC)c2cc(O)ccc21 | inactive: > 76.9 µM |
| Cc1ccc2nc3c(cc2c1)CC1(C(=O)N(C)C(=O)N(C)C1=O)C1COCCN31 (stereo not given) | inactive: > 76.9 µM |
| CCCCOC(=O)C1=C(N)OC2=C(C(=O)CC(C)(C)C2)[C@]12C(=O)N(C)c1ccccc12 | inactive: > 76.9 µM |

| SMILES | Potency |
| --- | --- |
| CCCC(=O)C1C(=O)NC(=O)NC1=O | inactive: > 76.9 µM |
| Cc1ccc2c(c1)CC1(CN2C)C(=O)NC(=O)N(c2cccc(C)c2C)C1=O (stereo not given) | inactive: > 76.9 µM |
| O=C1C2CCCN2C(c2ccncc2)N1c1ccc(Cl)c(Cl)c1 (stereo not given) | inactive: > 76.9 µM |
| O=C(O)Cn1cc(C(=O)c2ccccc2)c2ccccc21 | inactive: > 76.9 µM |
| CC12CN3CC(c4ccccc4)(CN(C1)C31CCCCC1)C2=O | inactive: > 76.9 µM |
| Fc1ccc(N2CCN(Cc3ccc4c(c3)OCO4)CC2)cc1 | inactive: > 76.9 µM |
| CCCCn1c(O)c(C(CC)=Nc2ccc(C(=O)O)cc2)c(=O)[nH]c1=O | inactive: > 76.9 µM |
| COC(=O)C(O)(c1c(C)[nH]n(-c2ccccc2)c1=O)C(F)(F)F (stereo not given) | inactive: > 76.9 µM |
| [O-][n+]1onc2c1CCC1N(O)CCC21O (stereo not given) | inactive: > 76.9 µM |
| CC12CN3CCN(CC(C3)C1O)C2 (stereo not given) | inactive: > 76.9 µM |
| CNCCc1c(C)n[nH]c1C | inactive: > 76.9 µM |
| CNP1(NC)=Nc2nn(-c3ccccc3)c(N)c2C(c2ccccc2)=N1 | inactive: > 76.9 µM |
| O=P(OCC(F)(F)C(F)F)(N1CCOCC1)N1CCOCC1 | inactive: > 76.9 µM |
| CCOCCCN=Cc1c(O)n(Cc2ccccc2)c(=O)[nH]c1=O | inactive: > 76.9 µM |
| c1ccc2oc(N3CCNCC3)nc2c1 | inactive: > 76.9 µM |
| CCCCn1c(N)c(C(=O)OCC2CCCO2)c2nc3ccccc3nc21 (stereo not given) | inactive: > 76.9 µM |
| Cn1c(=O)cc(SCC(=O)N2CCC3(CC2)OCCO3)c2ccccc21 | inactive: > 76.9 µM |
| Cc1ccc(C)c(CN2CCC(n3nnc4cc(F)ccc43)CC2)c1 | inactive: > 76.9 µM |
| Cc1cc(C)n(CCOC(=O)C2C(C=C(Cl)Cl)C2(C)C)n1 (stereo not given) | inactive: > 76.9 µM |
| COc1cc2nc(CN3CC=C(c4ccccc4)CC3)[nH]c(=O)c2cc1OC | inactive: > 76.9 µM |
| O=C1NC(=O)[C@]2(Cc3ccccc3N3CCN(c4ccccc4)CC32)C(=O)N1c1ccccc1 (stereo not given in full) | inactive: > 76.9 µM |
